Assay results reported in PubChem BioAssay AID1508623 (National Center for Advancing Translational Sciences (NCATS), 2021).
Hit rate of the full screen: of about 48,000 compounds, about 450 (0.94%) were called active. Inconclusive results (about 19%) are left out. Calls come from the whole dose curve; as a rule, active = well fitted inhibition curve with a large enough effect; inconclusive = small, poorly fitted or top-dose-only effect; inactive = no such curve, though single readings can be large or run the other way. The list shows a part of the results.

Assay: Primary qHTS for Identification of Small Molecule Inhibitors of Huntingtin Promoter Activity; note: nearly all actives have a fitted effect of over 50% in size
Settings: HEK293 HTT promoter firefly luciferase reporter (activity 0% = vehicle and -100% = no light), 24 h; series mostly up to 57.5 µM; activity change, negative = inhibition: at the top concentration
In short: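 Quantitative HTS used concentration series of up to 57.5 uM final on HEK293 luciferase reporter cells, 24 h at 37 degrees C. Readout was Dual-Glo firefly luminescence.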

Activity change, negative = inhibition, inactive:
Fc1ccc(CNc2nc3c(-c4ccc(F)cc4)nnn3c3ccccc23)cc1 -8.6%, COc1cc(C(=O)NCc2ccc3c(c2)CCN3C(=O)c2ccncc2)cc(OC)c1OC -8.92%, Cc1ccc(NC(=O)NCCc2c(C)nn(C)c2C)c(Cl)c1 0%, COc1ccc(-c2noc(CSCC(=O)Nc3ccc(C)cc3Br)n2)cc1OC -16.2%, COc1cccc(/C=C/c2nc(C#N)c(N(C)Cc3ccccc3)o2)c1 -13%, COCCCNC(=O)CN1C(=O)c2c(c3ccccc3n2C)C1c1ccc(OC)cc1 (stereo not drawn) -20.6%, CCCCSc1ncnc2c1sc1nc(N3CCOCC3)c3c(c12)CCCC3 -5.93%, CC1=C(C(=O)Nc2ccc(C)cc2)C(c2ccccc2Cl)n2nnnc2N1 (stereo not drawn) -3.79%, CCOc1ccc(CNC(=O)COc2cc(=O)n(C)c3ccccc23)cc1 11.3%, Cc1cccc2c1-c1sc(C(=O)NCc3ccccc3Cl)cc1CO2 -17.9%, CCC(=O)N1CCc2cc(Br)cc(S(=O)(=O)CCC(=O)NCc3ccccc3)c21 -10.7%, COc1cccc(NC(=O)c2cc(CN3CCOCC3)on2)c1 35.9%, COc1ccccc1CNC(=O)c1c2c(nc3ccccc13)C(=O)N(C1CCCCC1)C2 -4.44%, CCCCCCCCCCCCCCCC[N+](C)(C)Cc1ccccc1 -20.7%, CSc1cccc(NC(=O)CN(C)S(=O)(=O)c2ccc3c(c2)n(C)c(=O)c(=O)n3C)c1 -23%, Cc1nn2c(=O)cc(COC(=O)c3ccc(C(C)(C)C)cc3)nc2s1 -13.4%, O=c1ccc2cc(S(=O)(=O)N3CCCC3)ccc2[nH]1 -16%, O=C(Nc1c(C(=O)N2CCN(c3ccc(F)cc3)CC2)oc2ccccc12)c1ccco1 -21.8%, CCOC(=O)C1CCCN(CCC(=O)Nc2ccc(OC)cc2OC)C1 (stereo not drawn) 0.392%, COc1cccc(N2CCN(S(=O)(=O)c3ccc(-c4cnc(C5CC5)o4)cc3)CC2)c1 -21.9%, O=C(CSc1nc2ccccc2n1Cc1ccc(F)c(Cl)c1)N1CCN(c2ccc(F)cc2)CC1 -15.4%, Cc1cccc(-n2ccnc2SCC(=O)Nc2ccccc2C(F)(F)F)c1 -9.37%, CCn1cc(C(=O)NCCc2ccccc2)c(=O)c2cc(S(=O)(=O)N3CCOCC3)ccc21 -14.7%, COc1ccc(CNC(=O)CCc2c(C)nc3c(c2C)c(=O)n(C)c(=O)n3C)cc1 -0.738%, CCCc1nn2c(=O)cc(COC(=O)c3ccc(NC(=O)c4cccs4)cc3)nc2s1 -23.9%, CCc1ccc(NC(=O)CSC2=Nc3ccccc3C3=NC(CCC(=O)NCc4cccs4)C(=O)N23)cc1 (stereo not drawn) -1.63%, Cc1ccc(Cn2c(C)c(CNC3CCCCC3)c(C(=O)O)c2C)cc1 -14.5%, CCC(=O)N1CCc2cc(S(=O)(=O)NC(C(=O)NCc3ccc(OC)cc3)C(C)C)ccc21 (stereo not drawn) -16.3%, COc1cccc(N2C(=O)CSC23C(=O)N(CC(=O)Nc2cc(C)ccc2C)c2ccccc23)c1 (stereo not drawn) -13.2%, COc1ccc(OC)c(CCNC(=O)CCCc2nnc3n(C)c(=O)c4sccc4n23)c1 -4.1%, COC(=O)c1ccc(NC(=O)c2nn(C)c3c2CS(=O)(=O)c2ccccc2-3)cc1 0.897%, CC1CCN(S(=O)(=O)c2ccc3nc(-c4cccnc4)cc(C(=O)NCCCOC(C)C)c3c2)CC1 -3.27%, Cc1ccc(Cl)cc1NC(=O)c1oc2ccc(S(=O)(=O)N3CCC4(CC3)OCCO4)cc2c1C -7.16%, COc1ccc(C)cc1NC(=O)CN1CCN(CC(=O)Nc2ccccc2F)CC1 -15.6%, Cc1ccc2sc(N3CCN(C(=O)C4COc5ccccc5O4)CC3)nc2c1C (stereo not drawn) -29.5%, COc1ccc(NC(=O)Nc2cn(CC(C)C)c(=O)c3ccccc23)c(OC)c1 -15.1%, COc1ccc(-c2cc(-c3ccccc3)nc3c2COc2ccc(Cl)cc2-3)cc1 -8.67%, Cc1oc2ncn(C)c(=O)c2c1C(=O)N(C)c1ccccc1F 0%, CCN1C(=O)C(O)(c2c(C)[nH]c3ccccc23)c2ccccc21 (stereo not drawn) -7.47%, COc1ccc(NC(=O)CSC2=Nc3ccccc3C3=NC(CCC(=O)NCCc4ccccc4)C(=O)N23)cc1 (stereo not drawn) -17.9%, CC(C)(C)OC(=O)N1CCC(c2c(C(=O)N3CCN(C4CCCCC4)CC3)cnn2-c2cccc(Cl)c2)CC1 -27.4%, Cn1cc[nH]c1=S 11.5%, CCOC(=O)N1CCC(NC(=O)c2cnn(-c3cccc(C)c3)c2-n2cccc2)CC1 -29.7%, Cc1ccc(C)c(NC(=O)C(C)N(c2ccccc2)S(C)(=O)=O)c1 (stereo not drawn) -11.4%, Cc1oc2ncn(CC(C)C)c(=O)c2c1C(=O)Nc1ccc(Cl)cn1 0.748%, O=C(NCc1ccccc1Cl)C1CCCN(c2nc3ccccc3n3cccc23)C1 (stereo not drawn) -23.6%, Cc1ccc(C)c(S(=O)(=O)NCC(c2ccc(N(C)C)cc2)N2CCOCC2)c1 (stereo not drawn) -18.9%, Cc1cccc(OCCn2nnc3sc4c(c3c2=O)CCCC4)c1 8.86%, CC(C)c1ccc(NS(=O)(=O)c2ccc3[nH]cc(C(=O)NC4CCCCC4)c(=O)c3c2)cc1 14.9%, CCOc1ccc(CNCCNC(=O)c2nonc2N)cc1 -13.6%, CCOC(=O)c1sc(NC(=O)c2nc(SC)ncc2Cl)c(C(=O)OCC)c1C -2.47%, Cc1cccc(NC(=O)c2sc3cccc(Cl)c3c2Cl)c1 78.7%, CNC(=O)c1c(NC(=O)c2cc(=O)c3ccccc3o2)sc2c1CCC2 5.31%, CCCCNC(=O)CSc1c2c(nc3ccc(Cl)cc13)CCCC2 -2.78%, COc1ccc(-c2nc3ccccc3s2)cc1NC(=O)c1ccccc1OC 48%, COc1cccc(-c2nc(S(=O)(=O)c3ccccc3)c(NCc3ccccc3)o2)c1 -5.9%, Cn1c(=O)c2sccc2n2c(CCCC(=O)Nc3ccc(F)c(F)c3)nnc12 0.603%, COc1cccc(-c2cc(C(F)(F)F)nc(NCc3ccc(F)cc3)n2)c1 -20.2%, COc1ccc(CCNC(=O)c2ccc3c(c2)nc2n3CCOC2)cc1OC -7.46%, Cc1c(C(=O)Nc2ccc(F)cc2F)nnn1-c1ccccc1Br -22%, CC1=C(C(=O)Nc2ccccc2)C(c2ccncc2)n2nc(SCc3ccccc3)nc2N1 (stereo not drawn) -8.35%, COCCCNC(=O)c1c(C)nn(-c2ccc(F)cc2)c1-n1cccc1 -27.4%, CCc1nn(CC(=O)NCc2cccc(OC)c2OC)c(=O)c2cc3occc3n12 2.88%
